The other results are listed elsewhere or left out.
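Also: jurkat cells carrying a lentiviral library of mutant zinc finger degrons fused to EGFP plus mCherry, mCherry+ cells FACS sorted, degron abundance counted by next-generation sequencing.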

The test has as its target no compound (DMSO). The experiment in a line: log2 fold change of degron read counts, EGFP-low vs EGFP+ sorted cells; higher = lower degron-EGFP level without compound (poor expression or instability). Particulars: compound: DMSO control; 18 h.
Consider LECNQCGFECTQKGNLLRHIKL, for which the “log2 fold change of degron read counts” value was -0.644. For FVCPICGALFTQKGNLLRHIKL, the “log2 fold change of degron read counts” value stood at 0.604. As for FMCNQCGARFTQKGNLLRHIKL, the “log2 fold change of degron read counts” value came to 0.567. In the case of FSCNQCGHRFTQKGNLLRHIKL, the “log2 fold change of degron read counts” value is -0.0277. Consider FVCEICGHDFTQKGNLLRHIKL, for which the “log2 fold change of degron read counts” value was -1.71. With FHCEICGALFTQKGNLLRHIKL, the “log2 fold change of degron read counts” value is -1.44. FFCNQCGHHFTQKGNLLRHIKL: the “log2 fold change of degron read counts” value came to 0.643.

Turning to FMCDVCGACFTQKGNLLRHIKL, the “log2 fold change of degron read counts” value is -1.96. In the case of FKCPICGAYFTQKGNLLRHIKL, the “log2 fold change of degron read counts” value came out at 0.188. In the case of FMCEQCGASFTQKGNLLRHIKL it was -1.03.

In the case of FTCDICGALFTQKGNLLRHIKL, the “log2 fold change of degron read counts” value was -1.26. Regarding LWCNQCGFFCTQKGNLLRHIKL, the “log2 fold change of degron read counts” value was 2.93. In the case of FLCSVCGHQFTQKGNLLRHIKL it was -0.882; in that of FSCSVCGHQFTQKGNLLRHIKL, -0.64; in that of FACNICGAYFTQKGNLLRHIKL, 0.461. Take FNCNQCGHNFTQKGNLLRHIKL: the “log2 fold change of degron read counts” value turned out to be 0.486. The figure for FICPVCGAMFTQKGNLLRHIKL is 0.449; for FSCDQCGACFTQKGNLLRHIKL it is -1.96.

As to FYCEQCGAMFTQKGNLLRHIKL, the “log2 fold change of degron read counts” value was -1.25. Consider FVCEICGHKFTQKGNLLRHIKL, for which the “log2 fold change of degron read counts” value was -1.34.

For LMCNQCGFMCTQKGNLLRHIKL, the “log2 fold change of degron read counts” value was 0.815. In the case of LQCEICGFRCTQKGNLLRHIKL it was -0.585; in that of FVCPICGHCFTQKGNLLRHIKL, 0.125; in that of FECNQCGAMFTQKGNLLRHIKL, -0.0642.

For the sequence FRCDICGAKFTQKGNLLRHIKL, the “log2 fold change of degron read counts” value was -1.06. On to LKCNQCGFTCTQKGNLLRHIKL, for which the “log2 fold change of degron read counts” value is -0.426. The figure for FVCDICGAVFTQKGNLLRHIKL is 0.00773; for FYCEVCGAWFTQKGNLLRHIKL it is -0.0906; for FMCPICGADFTQKGNLLRHIKL it is -0.745. With FWCPICGRLFTQKGNLLRHIKL, the “log2 fold change of degron read counts” value stood at 0.524. Take FTCEICGHTFTQKGNLLRHIKL: the “log2 fold change of degron read counts” value was -2.64. The figure for FWCNICGAYFTQKGNLLRHIKL is 1.61.

The values are drawn from the supplement of paper PMC12645437, “Orthogonal IMiD-Degron Pairs Induce Selective Protein Degradation in Cells” (ACS Chemical Biology, 2025).
